# PubChem BioAssay AID686979 (National Center for Advancing Translational Sciences (NCATS), 2013)
# Out of some 420,000 compounds screened, about 50,000 (12%) were called active. Inconclusive means that the source gave no clear call. Such entries were picked first, then a sample of the others. The call rests on the fitted dose curve; in most records, active means well fitted inhibition curve with a large enough effect; inconclusive means small, poorly fitted or top-dose-only effect; inactive means flat fitted curve, though single readings scatter. No potency is given beside an inconclusive call; the fits are too rough.
# Test: qHTS for Inhibitors of human tyrosyl-DNA phosphodiesterase 1 (TDP1): qHTS in cells in presence of CPT; further: nearly all actives have a fitted effect of over 55% in size
# Details: chicken DT40 Tdp1-/-;hTDP1 cells + 20 nM CPT, ATP luminescence, 48 h; activity change, negative = growth inhibition: at 46.2 µM (top of the series) unless noted
# Procedure, shortened: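 Cell growth measured by CellTiter-Glo luminescence after a minimum 48 h, 37 C compound exposure with 20 nM CPT in Tdp1-knockout DT40 cells stably expressing hTDP1, seeded 400/well; qHTS titration format.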
# On the % scale 0 is the no-effect control and ±100 the full control effect; potency means the concentration at half of the fitted maximal effect; tags describe the fitted curve by direction and shape.
Compound,"activity change, negative = growth inhibition",Potency
CC1=CC(C)(C)NC(=S)N1c1ccc(Cl)cc1,inactive: -22%,–
Cc1ccc(NC(=O)C2CCN(S(=O)(=O)c3cccc4nsnc34)CC2)cc1F,–,"inconclusive [inhibitor, partial curve]"
O=C(Nc1cccc(-c2nc3cc(Cl)ccc3o2)c1)C1CCCO1 (stereo not given),–,"inconclusive [inhibitor, partial curve, poor fit]"
COc1ccc(N2CCN(C(=O)CSc3nnc(-c4ccc5[nH]c(C)c(C)c5c4)o3)CC2)cc1,–,"inconclusive [inhibitor, single point]"
CCOC(=O)N1CCC(NC(=O)c2cc(C(=O)NCc3ccc(F)cc3)ccc2CO)CC1,–,"inconclusive [inhibitor, partial curve]"
O=C(NCCc1ccc(F)cc1)N1CCOCC1,–,"inconclusive [inhibitor, single point]"
C=CCn1c(CCCOc2ccc(Cl)cc2Cl)nnc1SCC(=O)Nc1nccs1,–,"inconclusive [inhibitor, partial curve]"
COCCn1c(=NC(=O)c2cc(Cl)sc2Cl)sc2cc(S(N)(=O)=O)ccc21,–,"inconclusive [inhibitor, single point]"
CCN(CC(=O)Nc1ccc(OC)cc1)C(=O)CCc1nc2ccccc2c(=O)[nH]1,–,"inconclusive [inhibitor, partial curve]"
COc1ccc(NC(=O)C(=O)NCCc2csc3nc(-c4ccccc4F)nn23)cc1OC,inactive: -0.134%,–
CCCOc1ccc(-c2csc(N)n2)cc1[N+](=O)[O-],–,active: 14.6 µM
Cc1ccc(CNC(=O)C2CC=CCC2C(=O)O)cc1 (stereo not given),–,"inconclusive [inhibitor, single point]"
Fc1ccccc1C(c1nnnn1Cc1ccc2c(c1)OCO2)N1CCN(Cc2ccco2)CC1 (stereo not given),–,"inconclusive [inhibitor, single point]"
COCCn1c(=O)c(-c2ccccc2)nc2cnc(Oc3cccc(Cl)c3)nc21,–,"inconclusive [inhibitor, single point]"
Cc1cccc(N(C(=O)c2nsc(Cl)c2Cl)C(C(=O)NC2CCCC2)c2ccc(O)cc2)c1C (stereo not given),–,"inconclusive [inhibitor, single point]"
CCOC(=O)N/N=C(\C)c1ccc(Oc2ncccn2)cc1,–,"inconclusive [inhibitor, single point]"
COc1cc(S(=O)(=O)Nc2ccccc2C(=O)N2CCCCC2)ccc1NC(C)=O,inactive: -1.1%,–
COC(=O)C(C(=O)OC)c1ccccc1NC(=O)OCc1ccccc1,–,"inconclusive [inhibitor, single point]"
CCS(=O)(=O)c1ccc2oc(SCC(=O)NC3CCCC(C)C3C)nc2c1 (stereo not given),–,"inconclusive [inhibitor, single point]"
O=C(Nc1ccccc1)Nc1cccc(C(F)(F)F)c1,–,"inconclusive [inhibitor, single point]"
O=C(Nc1ccc2c(c1)CCCN2C(=O)c1ccco1)c1cc([N+](=O)[O-])ccc1Cl,–,"inconclusive [inhibitor, single point]"
COC(=O)c1ccc(N2CCN(c3ccccc3)CC2)c(N)c1,–,"inconclusive [inhibitor, partial curve, poor fit]"
CC1CCN(CC(=O)Nc2ccccc2Sc2ccccc2)CC1,–,"inconclusive [inhibitor, single point]"
C=CCN([C@H](C(=O)OC)C(C)C)S(=O)(=O)CCNCc1ccccc1,–,"inconclusive [inhibitor, single point]"

Compound,"activity change, negative = growth inhibition",Potency
N#Cc1ccccc1S(=O)(=O)N1CCN(CC(O)c2ccccc2)CC1 (stereo not given),inactive: -15.8%,–
O=[N+]([O-])c1ccc(O)c(/C=N/n2cnc3ccccc32)c1,–,"inconclusive [inhibitor, single point]"
Cn1c(NCc2ccccc2)nc2c1c(=O)n(Cc1ccccc1)c(=O)n2C,inactive: -16.9%,–
O=C(NCc1ccccc1)OCCN1CCN(Cc2ccccc2)CCC1=O,–,"inconclusive [inhibitor, single point]"
COc1ccc(OCC(=O)NCCC2=CCCCC2)c([N+](=O)[O-])c1,–,"inconclusive [inhibitor, single point]"
CCn1cc2nc(SCc3ccccc3Cl)n(Cc3ccc(OC)cc3)c(=O)c2n1,–,active: 25.9 µM
CCc1cccc(NC(=O)COC(=O)c2cc([N+](=O)[O-])ccc2N2CCOCC2)c1,–,"inconclusive [inhibitor, single point]"
COC(=O)c1cccc(N2C(=O)C3C4C=CC(CC4)C3C2=O)c1 (stereo not given),inactive: 5.7%,–
O=C(NCc1ccco1)C1CCN(C(=O)c2cc3sccc3n2Cc2ccc(Cl)cc2)CC1,–,active: 18.4 µM
COc1ccc(C(Nc2ccccn2)c2ccc3ccc(C)nc3c2O)cc1C (stereo not given),–,"inconclusive [inhibitor, single point]"
CN(C(=O)COc1ccc(Cl)cc1Cl)C1(C)CCS(=O)(=O)C1 (stereo not given),inactive: -5.76%,–
O=C(CNc1cc(S(=O)(=O)N2CCOCC2)ccc1N1CCCC1)NCc1ccco1,inactive: -9.86%,–
COc1ccc(S(=O)(=O)Nc2ccc3oc4ncccc4c(=O)c3c2)cc1OC,–,"inconclusive [inhibitor, partial curve]"
COc1ccccc1CNS(=O)(=O)c1ccc(N2CCCC2)cc1Br,–,active: 16.4 µM
CCCN(CCC)CCCNC(=O)c1cc2c(=O)n(C)c3ccccc3c2s1,–,"inconclusive [inhibitor, single point]"
CC(=O)Nc1ccc(S(=O)(=O)n2cnc3cc(C)c(C)cc32)cc1,–,active: 8.2 µM
COc1ccc(-n2cc(CNCC3CC(=O)N(C4CC4)C3)c(-c3ccccc3Cl)n2)cc1 (stereo not given),–,active: 16.4 µM
O=C(C1CCCO1)N1CCN(c2c3c(nc4cc(-c5ccc(F)cc5)nn24)CCC3)CC1 (stereo not given),–,"inconclusive [inhibitor, single point]"
NNC(=O)c1ccc(OCC2CC(c3ccc(Cl)cc3)=NO2)cc1 (stereo not given),–,"inconclusive [inhibitor, partial curve]"
O=C(N/N=C/c1cc(Br)c(Br)o1)c1ccc2c(c1)OCCO2,–,"inconclusive [inhibitor, single point]"
Cc1ccc2c(n1)CC(C)(C)CC2=O,inactive: -0.0715%,–
Cc1cccc(N2CCN(C3=C(c4ccccc4)C(=O)c4ccccc43)CC2)c1C,–,active: 7.31 µM
COc1cc(OC)c(OC)cc1/C=C/c1nc2cc3ccccc3cc2c(=O)n1-c1ccccc1Br,–,"inconclusive [inhibitor, single point]"
Cc1ccc(CNC(=O)c2cc(=O)c3cc(C)ccc3o2)cc1,–,inactive

Compound,"activity change, negative = growth inhibition",Potency
COC(=O)c1ccc(NC(=O)[C@H](C)NC(N)=O)cc1,inactive: 3.52%,–
CN1CCN(c2ncnc3c2cnn3-c2cccc(Cl)c2)CC1,–,active: 16.4 µM
COCCNC(=O)c1ccccc1NS(=O)(=O)c1ccc(C)c([N+](=O)[O-])c1,inactive: -3.71%,–
COCCn1nnnc1C(c1ccc(OC)cc1)N1CCC(C)CC1 (stereo not given),–,"inconclusive [inhibitor, single point]"
CCC(=O)c1ccc(OCC(=O)N(Cc2nnc(-c3ccccc3Cl)o2)C2CC2)cc1,–,"inconclusive [inhibitor, single point]"
COc1ccccc1C(=O)NC(=S)Nc1ccc(N2CCOCC2)c(Cl)c1,–,"inconclusive [inhibitor, single point]"
O=C(N/C(=C\c1ccccc1)C(=O)N1CCCCC1)c1ccc(Br)o1,–,"inconclusive [inhibitor, single point]"
COc1ccc(-c2nc3cnc(N4CCOCC4)nc3n(CCc3ccccc3)c2=O)cc1,inactive: -3.86%,–
c1ccc(C2=Nn3c(nnc3-c3cc(-c4ccccc4)n[nH]3)SC2)cc1,–,"inconclusive [inhibitor, single point]"
CN(c1ccc(C(=O)Nc2ccc(Cl)cn2)cc1)S(=O)(=O)c1ccccc1,–,"inconclusive [inhibitor, single point]"
CN(C(=O)c1nn(C)c2c1CSc1ccccc1-2)c1ccccc1Cl,–,"inconclusive [inhibitor, single point]"
CCc1nc2c(OCCC3CCCCC3)cccn2c1N(C)C(=O)COc1ccccc1,–,active: 16.4 µM
c1ccc(-n2cc(CNCCc3cscn3)c(-c3ccc4c(c3)OCO4)n2)cc1,–,"inconclusive [inhibitor, single point]"
CC(Oc1ccc(Br)cc1)C(=O)N1CCN(c2ccccn2)CC1 (stereo not given),–,"inconclusive [inhibitor, single point]"
Cc1ccc(Cn2c(CCNC(=O)c3cccc(C)c3)nc3ccccc32)cc1,–,active: 18.4 µM
Cc1ccc(/C=N/NC(=O)CCCOc2ccc(Cl)cc2Cl)cc1,–,active: 8.2 µM
COc1ccc(Cl)cc1NC(=O)CSC1=Nc2ccccc2C2=NC(CCC(=O)NCc3ccco3)C(=O)N12 (stereo not given),–,"inconclusive [inhibitor, single point]"
COc1ccc2nc(-c3ccccc3)[nH]c(=O)c2c1,inactive: -0.299%,–
COc1ccc(N2CCN(C(CNS(=O)(=O)c3ccccc3)c3ccccc3)CC2)cc1 (stereo not given),–,"inconclusive [inhibitor, single point]"
Cc1nc(C)c(C(=O)N/N=C/c2cc(Br)ccc2O)s1,–,active: 4.61 µM
COc1ccccc1NC(=O)c1oc2ccccc2c1NC(=O)c1ccco1,inactive: -18.4%,–
Cc1ccc(O)c(N/C=C/C(=O)c2ccc(F)cc2)c1,–,"inconclusive [inhibitor, single point]"
